The supplement of paper PMC7826260
Some of the results follow. Viral Rep nickase domains cut single-stranded DNA in vitro (1 h at 37 °C, 3 µM enzyme); the outer parts of the 90-letter strands are left off. Numbers give uncut DNA relative to the enzyme-free pool, as log2; the lower, the more was cut; hits are not called. Because reads are shares of a total, they shift together; uncut strands gain when others are lost, and binding without cutting may add a little.

These sequences were tested on T1, Rep nickase domain of Muscovy duck circovirus (assay: uncleaved DNA left, log2 of reads against the no-enzyme library (log2 ratio); higher = less cleavage (more negative = more Rep cleavage of the k-mer); sequences stand for … in CTCGTCCG…ACCGGAGA).
T1 sequence (residues 1-111 of Rep, tag left off): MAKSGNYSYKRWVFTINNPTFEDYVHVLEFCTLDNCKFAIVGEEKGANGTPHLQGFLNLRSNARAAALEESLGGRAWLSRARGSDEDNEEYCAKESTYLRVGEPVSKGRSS
Method: (§1)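 A pool of 90-nt single-stranded DNAs with seven random bases just before the constant AC of the nick site (name = the seven bases) was cut by 3 µM recombinant His6-SUMO-tagged Rep nickase domain (300 nM DNA, 50 mM HEPES pH 8.0, 50 mM NaCl, 1 mM MnCl2, 1 h, 37 °C, three replicates). Uncut DNA was amplified and sequenced.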

Sequence	uncleaved DNA left (log2)
ATTCTTC	0.131
CACTGTC	-0.0814
ATTCTAT	-0.0644
AGGGGTT	0.144
CTTCATA	-0.00282
GACGCTT	0.131
CGGCTGC	0.0711
AAGAGCC	0.0209
GGGGGTA	-0.0502
AAAAAGA	0.0265
TCCGGAG	0.103
CAGAGTC	-0.0372
TAAACAC	-0.0281
TGCCCCG	-0.0379
TCTCATA	0.0832
AGAGTAG	-0.0283
CAAGGAC	0.0166
CATTATT	-4.7
AATGCCA	0.00393
ATTTCTA	-0.139

Sequence	uncleaved DNA left (log2)
GCAGACA	0.0411
CATAAGG	0.204
CGATCGA	0.0753
GCGCGGA	0.175
CTGATCT	-0.0689
TTCATAA	0.0787
TAGGACC	0.144
GCCGCAA	-0.0456
CTATCTT	-2.98
TAAATCC	0.0721
CCCCATG	0.0889
AGAAGTA	0.0746
GCCCTTA	0.152
TATCTTA	-0.109
ATAACGA	0.0663
CTTGGCG	0.203
GCCTTTA	-0.0262
CCTTCGT	0.166
TCCGGGG	-0.0117
CGCGTAG	-0.147

What follows are sequences tested on T2, Rep nickase domain of banana bunchy top virus in the same assay as above.
T2 sequence (residues 1-94 of Rep, tag left off): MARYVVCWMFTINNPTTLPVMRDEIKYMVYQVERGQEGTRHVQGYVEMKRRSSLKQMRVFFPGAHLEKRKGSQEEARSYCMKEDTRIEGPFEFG
Method: as §1

Sequence	uncleaved DNA left (log2)
ATTCTTC	-0.0427
CACTGTC	-0.0781
ATTCTAT	-0.2
AGGGGTT	0.157
CTTCATA	0.135
GACGCTT	-0.0423
CGGCTGC	-0.0418
AAGAGCC	-0.0945
GGGGGTA	0.132
AAAAAGA	0.00591
TCCGGAG	-0.155
CAGAGTC	-0.0723
TAAACAC	0.0278
TGCCCCG	-0.0902
TCTCATA	-0.0351
AGAGTAG	0.0488
CAAGGAC	0.132
CATTATT	-4.2
AATGCCA	0.0138
ATTTCTA	-0.161

Sequence	uncleaved DNA left (log2)
GCAGACA	0.141
CATAAGG	0.125
CGATCGA	0.0355
GCGCGGA	0.225
CTGATCT	-0.0317
TTCATAA	0.0448
TAGGACC	0.137
GCCGCAA	-0.0674
CTATCTT	-0.178
TAAATCC	-0.0241
CCCCATG	-0.168
AGAAGTA	0.0994
GCCCTTA	0.00526
TATCTTA	0.0105
ATAACGA	0.0265
CTTGGCG	0.0939
GCCTTTA	-0.0124
CCTTCGT	-0.0238
TCCGGGG	-0.0353
CGCGTAG	-0.208

Each sequence was assayed on T3, Rep nickase domain of cabbage leaf curl virus in the same assay as above.
T3 sequence (residues 1-116 of Rep, tag left off): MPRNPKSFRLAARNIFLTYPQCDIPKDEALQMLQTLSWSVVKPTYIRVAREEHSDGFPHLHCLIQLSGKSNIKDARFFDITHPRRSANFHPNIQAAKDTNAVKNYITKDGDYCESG
Method: as §1

Sequence	uncleaved DNA left (log2)
ATTCTTC	0.0926
CACTGTC	-0.224
ATTCTAT	-0.138
AGGGGTT	0.507
CTTCATA	-0.0916
GACGCTT	0.383
CGGCTGC	0.0157
AAGAGCC	0.00527
GGGGGTA	0.763
AAAAAGA	-0.0836
TCCGGAG	-0.265
CAGAGTC	-0.0834
TAAACAC	-1.42
TGCCCCG	-0.834
TCTCATA	0.0462
AGAGTAG	-0.521
CAAGGAC	0.279
CATTATT	-3.8
AATGCCA	-0.191
ATTTCTA	-0.0409

Sequence	uncleaved DNA left (log2)
GCAGACA	0.558
CATAAGG	0.189
CGATCGA	-0.207
GCGCGGA	0.0413
CTGATCT	0.011
TTCATAA	-0.0205
TAGGACC	0.255
GCCGCAA	0.0343
CTATCTT	-1.88
TAAATCC	-2.27
CCCCATG	-0.744
AGAAGTA	0.0838
GCCCTTA	0.547
TATCTTA	-0.0954
ATAACGA	-0.821
CTTGGCG	-0.508
GCCTTTA	0.139
CCTTCGT	-0.414
TCCGGGG	0.696
CGCGTAG	-0.421

These sequences were tested on T4, Rep nickase domain of chickpea chlorotic dwarf virus in the same assay as above.
T4 sequence (residues 1-124 of Rep, tag left off): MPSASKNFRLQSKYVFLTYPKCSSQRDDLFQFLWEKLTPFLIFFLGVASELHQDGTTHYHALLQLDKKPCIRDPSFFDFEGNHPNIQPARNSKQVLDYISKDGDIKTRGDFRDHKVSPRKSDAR
Method: as §1

Sequence	uncleaved DNA left (log2)
ATTCTTC	-0.363
CACTGTC	0.101
ATTCTAT	-0.982
AGGGGTT	1.37
CTTCATA	-1.05
GACGCTT	-1.56
CGGCTGC	0.537
AAGAGCC	0.0836
GGGGGTA	1.74
AAAAAGA	-0.483
TCCGGAG	-0.0301
CAGAGTC	-0.165
TAAACAC	-2.63
TGCCCCG	-0.29
TCTCATA	-0.925
AGAGTAG	-0.464
CAAGGAC	1.2
CATTATT	-3.62
AATGCCA	-1.08
ATTTCTA	-1.54

Sequence	uncleaved DNA left (log2)
GCAGACA	1.06
CATAAGG	0.955
CGATCGA	-0.157
GCGCGGA	0.305
CTGATCT	-0.63
TTCATAA	-0.103
TAGGACC	0.866
GCCGCAA	0.182
CTATCTT	-2.7
TAAATCC	-2.91
CCCCATG	-0.631
AGAAGTA	-0.437
GCCCTTA	0.389
TATCTTA	-2.14
ATAACGA	-0.916
CTTGGCG	0.682
GCCTTTA	-0.187
CCTTCGT	-1.03
TCCGGGG	1.13
CGCGTAG	-0.38

Each sequence was assayed on T5, Rep nickase domain of faba bean necrotic yellows virus in the same assay as above.
T5 sequence (residues 1-98 of Rep, tag left off): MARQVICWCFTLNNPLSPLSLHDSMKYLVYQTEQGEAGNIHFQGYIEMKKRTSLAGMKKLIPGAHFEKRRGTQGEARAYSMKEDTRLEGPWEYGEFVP
Method: as §1

Sequence	uncleaved DNA left (log2)
ATTCTTC	0.109
CACTGTC	-0.0492
ATTCTAT	-0.0163
AGGGGTT	0.16
CTTCATA	0.103
GACGCTT	0.122
CGGCTGC	-0.0346
AAGAGCC	0.0515
GGGGGTA	-0.0436
AAAAAGA	0.0561
TCCGGAG	-0.201
CAGAGTC	-0.00305
TAAACAC	0.0277
TGCCCCG	0.0123
TCTCATA	-0.0777
AGAGTAG	0.0914
CAAGGAC	0.0289
CATTATT	-3.75
AATGCCA	-0.00559
ATTTCTA	-0.0331

Sequence	uncleaved DNA left (log2)
GCAGACA	0.0816
CATAAGG	0.0883
CGATCGA	-0.0145
GCGCGGA	0.143
CTGATCT	-0.114
TTCATAA	-0.0406
TAGGACC	0.0547
GCCGCAA	-0.179
CTATCTT	0.0242
TAAATCC	0.0711
CCCCATG	-0.0515
AGAAGTA	0.179
GCCCTTA	0.0672
TATCTTA	-0.0266
ATAACGA	0.0281
CTTGGCG	0.0256
GCCTTTA	0.138
CCTTCGT	0.0332
TCCGGGG	-0.187
CGCGTAG	-0.117
